Results taken from the RNAGym collection of RNA variant scans (doi:10.7554/elife.90254).
Read counts are not given, so values of variants with three or more changes are uncertain.

B1: LINE1-mini (parent)
chain: GGCAGAGCUCAACACAGCGUGGCAAAGUGGCUGUGGCUAGACUGCC

Variants of: B1
Test: self-cleavage, relative activity (ratio to wild type); higher = more cleavage; in vitro, sequencing; the parent is a self-cleaving ribozyme
In the case of G2U A14U U38A A39G C46G, the self-cleavage is reported as 0.01.
With A11G A26C G29U U34G the self-cleavage was 0.01.
U9C C15U U32A showed a self-cleavage of 0.01.
For G1C C8U A16U G35U, the self-cleavage was 0.01.
With G30C C31G C42U the self-cleavage was 0.05.
G33C C42U U43G gave a self-cleavage of 0.03.
A11C G27A G29U G33C G35A A41G showed a self-cleavage of 0.01.
With C8G A12C C37U the self-cleavage was 0.01.
A4U C13A G30A A41C gave a self-cleavage of 0.06.
In the case of G5C A6G G17U C46U, the self-cleavage is reported as 0.06.
With C8U G19U U43C G44U the self-cleavage was 0.2.
G5U A11C C13U G27U G29A G30U gave a self-cleavage of 0.01.
G5C C31A G36U showed a self-cleavage of 0.03.
A6U C10A C15U showed a self-cleavage of 0.06.
Variant A11G A12U C42A has a self-cleavage of 0.01.
Work on G1C G27C C31A G35A yielded a self-cleavage of 0.05.
Variant G5A C10G G21C G40U has a self-cleavage of 0.05.
In the case of C3U A26U G35U, the self-cleavage is reported as 0.17.
Work on G1U C15U G19A U28C G40A yielded a self-cleavage of 0.01.
Variant A6G A14G G17U G36U C46U has a self-cleavage of 0.02.
G2A G21A G29A showed a self-cleavage of 1.64.
Variant A14U C15A G19A has a self-cleavage of 0.09.
With A4G G7C A41U the self-cleavage was 0.25.
Variant G5C C18A G44U has a self-cleavage of 0.
With A12C G30C U34C C42A the self-cleavage was 0.
Variant A14C G19C G33A has a self-cleavage of 0.03.
With C10G G22C A25G U32A the self-cleavage was 0.01.
Variant G2C C3A A4G A6G U9A G22A has a self-cleavage of 0.
Variant A11G C13A C23U C31U has a self-cleavage of 0.03.
With A26G U32A U34C the self-cleavage was 0.02.
For A6G C31U C37A, the self-cleavage was 0.13.
Work on C8U C10A C13U G29U G36U yielded a self-cleavage of 0.02.
In the case of C8U A16G U20C G33U, the self-cleavage is reported as 0.01.
For A6G C18A C42U G44C, the self-cleavage was 0.05.
With U9G C37A C46U the self-cleavage was 0.04.
Work on A16C G17U A24C U32G yielded a self-cleavage of 0.06.
In the case of G2C G21C A39C, the self-cleavage is reported as 0.02.
Work on C31G G33U C37A G40A yielded a self-cleavage of 0.02.
Work on C3A A4C C42G yielded a self-cleavage of 0.06.
With C13A A24G U28C G35A A39U the self-cleavage was 0.11.
Work on A11U G36U G40C G44U yielded a self-cleavage of 0.01.
Variant U9C C18A C42U has a self-cleavage of 0.06.
U9C A26G U32C G36U C46G gave a self-cleavage of 0.01.
In the case of G2U C10U A12U C23A, the self-cleavage is reported as 0.02.
For G17A G22C G36C, the self-cleavage was 0.06.
With C23A G29U G30A U34G the self-cleavage was 0.1.
Work on G1A C18A G27A yielded a self-cleavage of 0.3.
G21U G22U C45G showed a self-cleavage of 0.75.
Work on C10A U34C A41U yielded a self-cleavage of 0.05.
C13U C15U G21U gave a self-cleavage of 0.13.
G5A G27A U28A G35A showed a self-cleavage of 0.02.
With A6C G17A G30A U32G G33A the self-cleavage was 0.
With C31A A39U A41C the self-cleavage was 0.08.
A6C G40C G44A C45A gave a self-cleavage of 0.02.
Variant C3A A11C G19C A41U has a self-cleavage of 0.02.
For C3G A11G C45G, the self-cleavage was 0.01.
In the case of A6C U9C U34A U43C, the self-cleavage is reported as 0.03.
With C13A A26U A39C A41C the self-cleavage was 0.07.
In the case of C10A C13A G17A C23A, the self-cleavage is reported as 0.04.
Work on C15A A24G G29C yielded a self-cleavage of 0.36.
Variant A6C G22A C23G G27U C37G has a self-cleavage of 0.
G7U U43G C46A showed a self-cleavage of 0.11.
With G7A G29C G30U G40U the self-cleavage was 0.42.
With G5A C13A A16C U43C the self-cleavage was 0.03.
G22C G29U A39C C46A showed a self-cleavage of 0.04.
Variant G7U C18U G22A C37A has a self-cleavage of 0.04.
With A11U G27C G30A U38A the self-cleavage was 0.03.
Variant A14C U28A G29A G30U has a self-cleavage of 0.1.
For A26U U38G A39G, the self-cleavage was 0.02.
Variant G2C G29C G36A has a self-cleavage of 0.02.
In the case of G2A A4U A26G, the self-cleavage is reported as 0.71.
For C10U C15G A41U, the self-cleavage was 0.04.
In the case of C10G A26C C31G G44U, the self-cleavage is reported as 0.
G5U C15U G27C U34A showed a self-cleavage of 0.03.
A4C G5C G29A U38A gave a self-cleavage of 0.05.
For G5C A6C C8U C10U A11C C18A, the self-cleavage was 0.03.
Work on U9A C15U A24U yielded a self-cleavage of 0.03.
C10A G21A A26U G36U G40A gave a self-cleavage of 0.01.
For A24G A25U G27C U32A, the self-cleavage was 0.06.
C10A A25G C37U showed a self-cleavage of 0.
Work on G7C C8G U20C G27A yielded a self-cleavage of 0.08.
In the case of G22U U28C C31U G40U G44A, the self-cleavage is reported as 0.04.
Work on A25G A26U C37U yielded a self-cleavage of 0.03.
In the case of A26C G29C G30C C37G A39G, the self-cleavage is reported as 0.05.
Variant U20C U32G G35U G40U has a self-cleavage of 0.03.
With U9C U28C C42A the self-cleavage was 0.01.
Work on A26C G30C U32C yielded a self-cleavage of 0.13.
Variant C3G G7U A24G C31U has a self-cleavage of 0.08.
In the case of C3G C23U G27U G44U C45U, the self-cleavage is reported as 0.1.
G1A A12U G17A gave a self-cleavage of 0.13.
Work on G1U U9C A11G C13A C15G A16U G22C yielded a self-cleavage of 0.01.
With A6U A16U C23A the self-cleavage was 0.13.
For A25C U34A A41C G44A C45A, the self-cleavage was 0.
G1C U9C A39U showed a self-cleavage of 0.04.
Work on G2A C3A C8G U9C C15A A24C C31U C42U C45U yielded a self-cleavage of 0.04.
G21C C23G G30C showed a self-cleavage of 2.05.
For C15A C23G A24G C45A, the self-cleavage was 0.01.
G7U G36U C37U showed a self-cleavage of 0.01.
In the case of G5A C10A C23A U28G, the self-cleavage is reported as 0.01.
With A4C G5C C23U G27A U28A U38C the self-cleavage was 0.01.
With G2A A4U U20C G30A the self-cleavage was 0.16.
G7U C15G G22A A24G U34G showed a self-cleavage of 0.33.
A12C G19C U32A showed a self-cleavage of 0.03.
For G2U G27A G35U, the self-cleavage was 0.06.
In the case of G1A G5A A16U G17U, the self-cleavage is reported as 0.12.
G1A A16U G36C showed a self-cleavage of 0.11.
Variant C23U A24G C31A U32A C46A has a self-cleavage of 0.19.
With C31A U43A G44C the self-cleavage was 0.02.
Variant G17U U20G A24U U28C C37A C45G has a self-cleavage of 0.02.
A26C U28C U32A showed a self-cleavage of 0.
With C3U A11G A16G C42G the self-cleavage was 0.
Work on G2C A6U U28G U34C C37U A41C yielded a self-cleavage of 0.03.
In the case of G2U A16U G19U U20A G29U, the self-cleavage is reported as 0.05.
For C23A G30A G33U U38C A39C A41C, the self-cleavage was 0.04.
Work on A4G C13A U32A C37A yielded a self-cleavage of 0.05.
Work on C3A A12U G29C G33A yielded a self-cleavage of 0.11.
In the case of A6C A11U G17C C37A U38A, the self-cleavage is reported as 0.01.
G2A U20A A26U gave a self-cleavage of 0.16.
In the case of A14G U20C A24U G35U C37U, the self-cleavage is reported as 0.02.
Work on A6U C8A C10U G29C yielded a self-cleavage of 0.03.
Work on A4U A25U G33C C45U yielded a self-cleavage of 0.03.
Work on G5U C15A G19A yielded a self-cleavage of 0.02.
With A6C G35A C37G the self-cleavage was 0.07.
In the case of C3A C15A A41C, the self-cleavage is reported as 0.13.
For C3G A6C C8U G29U C45A, the self-cleavage was 0.29.
In the case of C18A U34G A39U C45U, the self-cleavage is reported as 0.03.
In the case of G1A A26U U34A A41G, the self-cleavage is reported as 0.05.
In the case of C3G G17A G35A G36C, the self-cleavage is reported as 0.07.
Variant A26U G27U C37U has a self-cleavage of 0.05.
Work on G22U A39C G40C yielded a self-cleavage of 0.08.
For C3G C10G G21A A24G G35A U38C A41U, the self-cleavage was 0.
For G7U C8G C13A C37A, the self-cleavage was 0.02.
In the case of G2U C3A A12G C13U C46A, the self-cleavage is reported as 0.01.
In the case of C3A A16C G22C, the self-cleavage is reported as 0.29.
A12G C18A C23A A25U gave a self-cleavage of 0.02.
With A11U G17C G22U A26U the self-cleavage was 0.05.
C13G A16U G19A U32A gave a self-cleavage of 0.06.
G1U U20G C23G G33C C37A gave a self-cleavage of 0.01.
In the case of G17A C23A G40C C46G, the self-cleavage is reported as 0.02.
Variant A26C G29U U32A has a self-cleavage of 0.06.
A6U C13U A16G G40A gave a self-cleavage of 0.17.
For A14G G33C U34A, the self-cleavage was 0.03.
For G5U U9G C23U A26C G30A C31U G36C C45A, the self-cleavage was 0.29.
Variant C15U A25U A41C has a self-cleavage of 0.27.
Work on G1C G19U G29A U32A G36C G44A yielded a self-cleavage of 0.01.
For C10A C13U C18A G22A A25U G33U, the self-cleavage was 0.01.
G1C C10U U28C C46A showed a self-cleavage of 0.1.
In the case of U9C G17C A25C G29A C46A, the self-cleavage is reported as 0.01.
For G5A C31A U34C G44C, the self-cleavage was 0.
In the case of G17U C18U G19U G27A G36U, the self-cleavage is reported as 0.01.
G1U G2C C3U C31G C37A gave a self-cleavage of 0.02.
Work on C8A U9A C13G U32G yielded a self-cleavage of 0.19.
C23A A24C C37A A39U gave a self-cleavage of 0.04.
In the case of G2U G5C A14U C18A G19C C31A, the self-cleavage is reported as 0.03.
With A6G G19A C45G the self-cleavage was 0.16.
Variant A12U U28G A39G U43C C45G has a self-cleavage of 0.06.
Variant G5C A6U U20C C31G A41C has a self-cleavage of 0.02.
With U9A A16U G17A G19C the self-cleavage was 0.06.
For C10G A11G G30A, the self-cleavage was 0.
A4U C23U G33A gave a self-cleavage of 0.2.
Work on G2A C8U C13U A14U G17A U32C G33A yielded a self-cleavage of 0.49.
Work on U20A C23A U34G yielded a self-cleavage of 0.54.
Work on C13A U20C G30C yielded a self-cleavage of 0.04.
Work on A24C A26G U28G yielded a self-cleavage of 0.12.
Work on A6G A16G G27U G44U yielded a self-cleavage of 0.11.
With C8A C23A U28G U38A the self-cleavage was 0.03.
Work on U9G A11G C18U A26C G27C G30U A39G A41U yielded a self-cleavage of 0.01.
